# Experimental data from article PMC10726135.
# The list shows a part of the results. At the low end of the ranking the order means little. The protein was read in a cell extract, so binding may be indirect.
# Target: T1, HNF4alpha2 (COS-7 nuclear extract) (UniProt P41235)
# T1 sequence: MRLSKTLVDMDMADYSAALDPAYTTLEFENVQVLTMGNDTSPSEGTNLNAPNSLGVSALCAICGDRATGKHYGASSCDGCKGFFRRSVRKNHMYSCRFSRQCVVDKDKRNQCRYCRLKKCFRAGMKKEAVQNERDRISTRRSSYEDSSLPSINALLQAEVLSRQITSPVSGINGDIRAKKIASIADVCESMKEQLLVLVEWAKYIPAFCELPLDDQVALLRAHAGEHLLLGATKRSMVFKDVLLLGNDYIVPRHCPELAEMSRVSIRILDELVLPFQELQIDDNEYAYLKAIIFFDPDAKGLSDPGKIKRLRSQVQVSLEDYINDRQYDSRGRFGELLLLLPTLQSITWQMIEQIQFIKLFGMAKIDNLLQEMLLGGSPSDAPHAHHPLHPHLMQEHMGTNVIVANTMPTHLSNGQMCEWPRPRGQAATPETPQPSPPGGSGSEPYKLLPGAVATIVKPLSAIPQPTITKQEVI
# Assay: protein-binding microarray
# Settings: COS-7 nuclear extract on double-stranded Agilent 4x180k PBM; binding buffer, salt, pH and temperature not given; high values mean tight binding; double strand, one strand shown; sequences stand for … in …GCCTAGGGAGATTAGAGTATCGGTCGA
row,Sequence,binding signal (log2 normalized intensity)
1,GGTCACAGTAACAGGGAGTCTGTTGCAAGC,-1.11
2,ACCATCTCCTTTTGTGAGAGGTCAATGTCC,6.22
3,CTCCTGCCCTACTCCCTTAAATAATGCATA,1.27
4,CCAACTCCCCTCCCAAGGCAGCAATCCCCT,4.97
5,AACAGCAGCCACATTCCATGAGCTGGCCTC,-1.16
6,GGGTCAGAGAAACCTGGCTGCGAGTCCCTG,-1.13
7,CCCAGTCCAAATTCCCTTCCCCTCCTTAGG,2.5
8,GGTCAATAGTCCAGATACAGATGGCTAGAA,-1.11
9,TCTCTAAGATAAGGATAATCTTCACTTGCC,-0.954
10,GAATCACTCACTGACCTCTTTTGGATTTTT,1.73
11,GCTCTCCTCCTAATCACTGCCCTTTGGTGC,2.83
12,TTGGCCTATGGGAAAACAGGCTCAGCAAAG,-1.08
13,GCTGCTTCCCAGTTGCTCTGGAGTGCAGGT,-0.82
14,CCCTCAGTACAGGGCGTCCTTGATAAGCAA,-0.94
15,GACAAAGGGCTCTCTCACCAGAAAAATGTA,-1.19
16,TTAGTGTGCTCTGGGTCTGTCCTTTGTGTT,2.67
17,TTCCTCTCCTGCCCTACTCCCTTAAATAAT,2.49
18,ATATTTGCTCTTATTGATTGCCTTTCATGT,1.47
19,TCTGATGTCTGCTGAGAGATTCCTCTGCAC,-1.06
20,TCTAACATTTTTGACCTTCAGCATCTTCAA,2.85
21,GGGTGATAAGAACACAAAAGCCTCTTCAGG,-1.24
22,CCCAGGGTTAGAGGATGACCTTCCCTGCAG,1.33
23,GGCTGTGCATATTGGTTTACAGCACTTCAT,0.595
24,TTTGTCAAATGCTTCCAAGAATTTAAGAGA,-0.179

row,Sequence,binding signal (log2 normalized intensity)
1,ATCACGTCTCTCTGGGGCCCTCTTCTGCAT,-0.843
2,CCCTCCCCTCCCCCCACTCAAAATAGGAGT,4.52
3,TCTCATGCCCTTTGCCTCCCTGCATTCCAT,3
4,CAGCCCTGCTCCCCGCCTTGGCCTCCCGGA,2.88
5,CCAGGATCCAGTCCTCACCCAGAACTTTGA,2.27
6,GGGAGTAAAGGTCACGCAGGCCACCTGGTG,3.36
7,TGGATTGCCTCCTAAGGCCTCCAGAAGGAA,-1.11
8,GCACAGTCAAAAATTTGTGTGTAACATTTG,1.17
9,AGATGATAGTGATAAGGATCTAAGAACTAA,-1.12
10,TACGGACCATGGATCGCCAACCTTGGGTCT,-1.06
11,TGCCTTTGATCAGGGACCTTTGTTCCTTTA,4.43
12,TTATCTTACATGCCTTATCTGGTTCAAAGG,2.9
13,ACCCCACGGACTTAAATTGTGCTGTGTCAG,1.49
14,TGGTTTTCCAATCTGGTGAAAGATGATGAG,1.17
15,ACCTAGGTAGTGGACTCTAAGGCAAAACAC,1.38
16,GCATTCCTGAAGCCTTCCTTAATCCTTCAG,-0.828
17,TTGGCACTTCTCTCGGCCTTAAGAGTCAAA,-1.07
18,TTCTTCCTGTTTGACCTTCGAACCCTTGCC,9.01
19,AATAAGAGCTTTGCATAAGCCAGACATTCT,-1.07
20,TTTATTGTTGCTGATATAGAACACTTGTAC,1.54
21,ATGATCCTTGGCTGTGTGACTCACCTTTGC,3.25
22,ATGGATCATCACAATCACCTGTGAAGTGGT,-0.707
23,AGTTTTATGGCAGGGTCGGAATGTCTGGGC,1.48
24,AGGGACTTTGTCCCACAGGAGAAGTGATCC,1.54

row,Sequence,binding signal (log2 normalized intensity)
1,ACATCTTGATTTAGCCCAGTGAGACCCATT,1.38
2,GCCACCCCCGTTAATTTCTAACCAATGCAG,0.623
3,ATGAAAAGTGGAATGCGCTTTCATGAGATG,-0.917
4,TTGTCAAGTGCCCGGATAAACTTCCAGCCA,-1.12
5,ACTGTAACCTTTGCCCCCCTGGGCTCAAGC,5.81
6,TAGCCTTTCATCTTCTTAGCCTTTGAACCC,6.15
7,TCAAGCACATTCCAGAACCAAGATTTACAT,-0.853
8,ATCCAGCTGGGTATACTGACTAGGACAGAG,-0.958
9,TTTTATTTAACTTCTGGGGGCAAGGTACAC,4.22
10,CTTCCCCCCTCCCTCCGCAACCTTTACTCC,5.16
11,TCCCTCATCTGTCATTCCCTCACTCTAGAA,-1.09
12,CACTCCAGTGAGACAGAAGTAAAACAGGTA,-1.11
13,GGACAATCATTGTGCAACCTGGACATTGGC,2.08
14,CATTGCAAGTCGTATACTATCTCAGGGCCT,0.266
15,TTGCCTTCCTGTTAGATAGAGGAGTCAAGC,-1.01
16,CGAGAGCCGCCGCCGTGGGAGAGGCCGCCC,-1.03
17,CTACATAACAAACATTACTAACTGGACTTT,6.17
18,CAAAGGACATTTCTAAAAATAGCCTTACTT,-0.901
19,TGACCTCTTGGAAACATTTTACTCACCCCT,2.82
20,CTCTGGGAGATAAAGCAGAGGGCTGCTTGC,-1.15
21,CTTGGTGAGAGATTAAACATGCTCTGCATA,-1.24
22,AGAGCACTAAATCTCTCCTAGAGAAAGGGG,-1.09
23,GTAGAAATTGTGGCTTGTGTAGTTATCCAG,0.927
24,CTGAGGATCTAATGCACCCAGAACCCCCAG,4.71

row,Sequence,binding signal (log2 normalized intensity)
1,TGGTAGCGTGTAGTAAAGCTCATGAAGCTT,-0.0448
2,CTATCAGTCTGGGTCCAGTCAGGGAAATGG,0.422
3,GCAGAGTGGGAGGCCAAGAGATAAAAGAGA,-1.15
4,GGGCTGTGAGAAACATCCTGCCTAACCACC,-1.19
5,CCACAAGCCAAGGAGAGAGGCCTCTAGATA,-1.06
6,GGTGGAGATGCCGTCGGCACACACGCATGG,-0.836
7,GGGCATGGACTTTGGAATTAAGGAGATTTG,4.96
8,TATCTTTCCCTCCACTTCCTTTCTTTCCCT,0.993
9,ATGGCTACCAAGGAGTGGACTGTTCAAGAC,-0.242
10,ACCTGGCCAAGTACAGCCTGTGCTAAGTTT,-0.802
11,TAAGTGCACAGCCAGAACTGAGCCCTGGTT,-1.15
12,AGCATTAATCCCTGAGCCTGGACCTTGGAA,3.62
13,GGTGGCCATCCATCCTGGCGACAGCAACTA,-1.12
14,TCCAAAGGCCATCCACATTCTTTGGCTCAG,-1.12
15,TTTGTCACCCAGGCTGAAGTCCAGTAGCTC,0.869
16,TGACAGCAAGATAATGTCAAAAATCTTAAG,-0.767
17,GGTGGTGGGGGGTAGCCACTGACAGGAGGT,-1.2
18,CCACAGAGTGACCTGGTATTGCAAGTATTT,1.1
19,AGAGGCTTTAGCAATAAATTCTGTTTTTTC,-0.965
20,CAAGTTGAAGCCATCCTCCCACCTCAGCCT,2.4
21,AGCCGCAGAGCTAATGTTCAAATCCAGACA,-1.03
